These are yes or no findings as the source states them, for the method shown. For some assays here: Binding seen in cells or lysates may run through a third protein. Some results given as binding are weak or reduced against the parent protein; the word gives no strength. Tags and fused reporters may be left off the sequences shown.
T1: DivIVA-FLAG (wild-type DivIVA with a C-terminally appended FLAG tag) (Bacillus subtilis) (UniProt P71021)
T1 sequence: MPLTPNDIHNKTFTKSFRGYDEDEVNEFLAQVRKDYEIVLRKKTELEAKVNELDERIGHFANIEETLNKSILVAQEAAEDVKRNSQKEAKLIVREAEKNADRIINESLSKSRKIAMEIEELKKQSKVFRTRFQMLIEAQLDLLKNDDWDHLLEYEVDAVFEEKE

The chains behind the UniProt entries cited, without tags or fusion partners.
UniProt P06224: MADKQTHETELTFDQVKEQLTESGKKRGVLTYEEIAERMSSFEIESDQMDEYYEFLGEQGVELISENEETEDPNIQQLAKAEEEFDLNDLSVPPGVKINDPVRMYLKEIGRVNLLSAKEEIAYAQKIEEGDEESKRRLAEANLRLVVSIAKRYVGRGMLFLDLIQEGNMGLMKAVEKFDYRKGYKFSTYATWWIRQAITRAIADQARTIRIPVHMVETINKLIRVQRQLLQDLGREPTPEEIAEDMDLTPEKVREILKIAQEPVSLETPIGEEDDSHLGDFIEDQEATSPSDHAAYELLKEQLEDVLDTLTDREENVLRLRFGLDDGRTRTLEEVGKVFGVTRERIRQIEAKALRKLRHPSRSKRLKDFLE

T2: DivIVA^R94N-FLAG (Bacillus subtilis) (UniProt P71021)
T2 sequence: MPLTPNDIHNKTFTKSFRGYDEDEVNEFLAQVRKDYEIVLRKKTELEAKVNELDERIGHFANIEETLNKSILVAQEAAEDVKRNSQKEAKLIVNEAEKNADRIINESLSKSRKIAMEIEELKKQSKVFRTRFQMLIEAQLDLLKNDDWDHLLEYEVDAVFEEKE

T3: DivIVA (wild type) fused to an adenylate cyclase subunit (bacterial two-hybrid fusion) (Bacillus subtilis) (UniProt P71021)
T3 sequence: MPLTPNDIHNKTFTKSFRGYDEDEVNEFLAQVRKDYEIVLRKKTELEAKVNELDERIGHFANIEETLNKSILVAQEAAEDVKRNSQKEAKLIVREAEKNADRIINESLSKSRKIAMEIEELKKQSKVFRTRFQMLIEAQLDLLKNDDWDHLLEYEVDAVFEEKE

T4: DivIVA R94N fused to an adenylate cyclase subunit (bacterial two-hybrid fusion) (Bacillus subtilis) (UniProt P71021)
T4 sequence: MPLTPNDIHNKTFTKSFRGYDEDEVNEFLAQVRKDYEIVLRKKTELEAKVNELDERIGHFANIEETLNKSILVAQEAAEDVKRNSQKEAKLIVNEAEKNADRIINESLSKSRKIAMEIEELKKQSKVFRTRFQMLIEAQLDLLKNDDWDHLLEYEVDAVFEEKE


Experiments:
[1] = biological target: T1, DivIVA-FLAG (wild-type DivIVA with a C-terminally appended FLAG tag) (Bacillus subtilis); test: co-IP
[2] = biological target: T2, DivIVA^R94N-FLAG (Bacillus subtilis); test: co-IP
[3] = biological target: T3, DivIVA (wild type) fused to an adenylate cyclase subunit (bacterial two-hybrid fusion) (Bacillus subtilis); test: two-hybrid
[4] = biological target: T4, DivIVA R94N fused to an adenylate cyclase subunit (bacterial two-hybrid fusion) (Bacillus subtilis); test: two-hybrid

Row | Molecule | binding [1] | binding [2] | binding [3] | binding [4]
1 | SigA (from UniProt P06224 1-371) | no binding | no binding | – | –
2 | SpoIIE fused to an adenylate cyclase subunit (bacterial two-hybrid fusion) (enzyme, UniProt P37475 1-827) MEKAERRVNGPMAGQALEKLQSFFNRGTKLVTHHLHSLFFYKGFIYVVIGFLLGRAFILSEVLPFALPFFGAMLLIRRDKAFYAVLAVLAGALTISPKHSLLILAALLAFFVFSKVAAFITDDRVKALPIVVFFSMAAARAGFVYAQNGVFTTYDYVMAIVEAGLSFILTLIFLQSLPIFTVKKVKQSLKIEEIICFMILIASVLTGLAGLSYQGMQAEHILARYVVLSFSFIGGASIGCTVGVVTGLILGLANIGNLYQMSLLAFSGLLGGLLKEGKKAGAAIGLIVGSLLISLYGEGSAGLMTTLYESLIAVCLFLLTPQSITRKVARYIPGTVEHLQEQQQYARKIRDVTAQKVDQFSNVFHALSESFATFYQASDEQTDDSEVDLFLSKITEHSCQTCYKKNRCWVQNFDKTYDLMKQVMLETEEKEYASNRRLKKEFQQYCSKSKQVEELIEDELAHHHAHLTLKKKVQDSRRLVAEQLLGVSEVMADFSREIKREREQHFLQEEQIIEALQHFGIEIQHVEIYSLEQGNIDIEMTIPFSGHGESEKIIAPMLSDILEEQILVKAEQHSPHPNGYSHVAFGSTKSYRVSTGAAHAAKGGGLVSGDSYSMMELGARKYAAAISDGMGNGARAHFESNETIKLLEKILESGIDEKIAIKTINSILSLRTTDEIYSTLDLSIIDLQDASCKFLKVGSTPSFIKRGDQVMKVQASNLPIGIINEFDVEVVSEQLKAGDLLIMMSDGIFEGPKHVENHDLWMKRKMKGLKTNDPQEIADLLMEEVIRTRSGQIEDDMTVVVVRIDHNTPKWASIPVPAIFQNKQEIS | – | – | binds | binds
3 | DivIVA (wild type) fused to an adenylate cyclase subunit (bacterial two-hybrid fusion) (protein, UniProt P71021 1-164) MPLTPNDIHNKTFTKSFRGYDEDEVNEFLAQVRKDYEIVLRKKTELEAKVNELDERIGHFANIEETLNKSILVAQEAAEDVKRNSQKEAKLIVREAEKNADRIINESLSKSRKIAMEIEELKKQSKVFRTRFQMLIEAQLDLLKNDDWDHLLEYEVDAVFEEKE | – | – | binds | –
4 | DivIVA R94N fused to an adenylate cyclase subunit (bacterial two-hybrid fusion) (protein, UniProt P71021 1-164) MPLTPNDIHNKTFTKSFRGYDEDEVNEFLAQVRKDYEIVLRKKTELEAKVNELDERIGHFANIEETLNKSILVAQEAAEDVKRNSQKEAKLIVNEAEKNADRIINESLSKSRKIAMEIEELKKQSKVFRTRFQMLIEAQLDLLKNDDWDHLLEYEVDAVFEEKE | – | – | binds | –
5 | SpoIIE-GFP (enzyme, UniProt P37475 1-827) MEKAERRVNGPMAGQALEKLQSFFNRGTKLVTHHLHSLFFYKGFIYVVIGFLLGRAFILSEVLPFALPFFGAMLLIRRDKAFYAVLAVLAGALTISPKHSLLILAALLAFFVFSKVAAFITDDRVKALPIVVFFSMAAARAGFVYAQNGVFTTYDYVMAIVEAGLSFILTLIFLQSLPIFTVKKVKQSLKIEEIICFMILIASVLTGLAGLSYQGMQAEHILARYVVLSFSFIGGASIGCTVGVVTGLILGLANIGNLYQMSLLAFSGLLGGLLKEGKKAGAAIGLIVGSLLISLYGEGSAGLMTTLYESLIAVCLFLLTPQSITRKVARYIPGTVEHLQEQQQYARKIRDVTAQKVDQFSNVFHALSESFATFYQASDEQTDDSEVDLFLSKITEHSCQTCYKKNRCWVQNFDKTYDLMKQVMLETEEKEYASNRRLKKEFQQYCSKSKQVEELIEDELAHHHAHLTLKKKVQDSRRLVAEQLLGVSEVMADFSREIKREREQHFLQEEQIIEALQHFGIEIQHVEIYSLEQGNIDIEMTIPFSGHGESEKIIAPMLSDILEEQILVKAEQHSPHPNGYSHVAFGSTKSYRVSTGAAHAAKGGGLVSGDSYSMMELGARKYAAAISDGMGNGARAHFESNETIKLLEKILESGIDEKIAIKTINSILSLRTTDEIYSTLDLSIIDLQDASCKFLKVGSTPSFIKRGDQVMKVQASNLPIGIINEFDVEVVSEQLKAGDLLIMMSDGIFEGPKHVENHDLWMKRKMKGLKTNDPQEIADLLMEEVIRTRSGQIEDDMTVVVVRIDHNTPKWASIPVPAIFQNKQEIS | binds | binds | – | –

Source: publication PMC10990147
